The other results are listed elsewhere or left out. The list includes weakly bound sequences.

This assay addresses MaxL homodimer (UniProt P61244). The experiment in a line: universal protein-binding microarray (PBM). The note with it: PBS-based mixture, 10 nM His-tagged protein dimer, 2% milk, 200 ng/uL BSA, 50 ng/uL salmon testes DNA, 0.02% TX-100; detection with Alexa 488 anti-His …; high values mean tight binding; most listed sequences are background and not binding sites; double strand, one strand shown.
Chain of UniProt P61244 (P61244 whole entry): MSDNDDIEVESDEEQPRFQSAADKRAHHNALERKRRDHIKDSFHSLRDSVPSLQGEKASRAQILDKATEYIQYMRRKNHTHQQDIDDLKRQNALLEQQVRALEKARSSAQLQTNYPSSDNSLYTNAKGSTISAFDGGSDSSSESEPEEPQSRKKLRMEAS
Turning to AAAATACA, the binding signal (normalized occupancy) worked out at 0.0824.
AGCTAGGG: the binding signal (normalized occupancy) was 0.0743.
For the sequence ACAATGGA, the binding signal (normalized occupancy) stood at 0.0765.
Next, ACCCACGC: 0.105; GTATAACA: 0.085; CCCGAATC: 0.0724.
As to GAGGTACA, the binding signal (normalized occupancy) was 0.0818.
The figure for AAGTGACC is 0.0751; for ACTATCAA it is 0.0737; for ATGGAAGA it is 0.0759.
For the sequence ATTATTCA, the binding signal (normalized occupancy) was 0.0849.
For the sequence ACATCAAT, the binding signal (normalized occupancy) worked out at 0.0847.
As for AGGTGGAT, the binding signal (normalized occupancy) came to 0.08.
Regarding GTGGCCGA, the binding signal (normalized occupancy) was 0.0781.
In the case of ATCTGAAT, the binding signal (normalized occupancy) was found to be 0.0792.
Next, ACGAGGAT: 0.0859.
As to CTAGCAGA, the binding signal (normalized occupancy) worked out at 0.0658.
Take ATTCGAAT: the binding signal (normalized occupancy) turned out to be 0.0762.
In the case of ACTGGGAA, the binding signal (normalized occupancy) was determined as 0.0718.
ACGTGTGC: the binding signal (normalized occupancy) came to 0.109.
For the sequence AGGAGGCA, the binding signal (normalized occupancy) was found to be 0.0697.
For GGTTTAGA, the binding signal (normalized occupancy) amounted to 0.073.
Take GCGCCGCA: the binding signal (normalized occupancy) is 0.0796.
For GATATCCA, the binding signal (normalized occupancy) was 0.0802.
With ACGAATAT, the binding signal (normalized occupancy) came to 0.0788.
Next, CACTGCCA: 0.0766.
In the case of GCTTCGTA, the binding signal (normalized occupancy) was 0.0728.
On to GAAGAATC, for which the binding signal (normalized occupancy) was found to be 0.0698.
Regarding GGACCTCA, the binding signal (normalized occupancy) is 0.0767.
Consider CACTTGAG, for which the binding signal (normalized occupancy) worked out at 0.0725.
Next, CAGAGTGA: 0.0776.
CAGTTAAA: the binding signal (normalized occupancy) was determined as 0.0713.
Next, ATGGTGGG: 0.0857; GCAAGCGC: 0.0702; CCAGCGGC: 0.068.
With CAGCGACC, the binding signal (normalized occupancy) was 0.0689.
With CTACCTTA, the binding signal (normalized occupancy) amounted to 0.0706.
For the sequence ACGGGGCA, the binding signal (normalized occupancy) came out at 0.0797.
With AGCTAACC, the binding signal (normalized occupancy) was 0.0735.
With GAGATCCA, the binding signal (normalized occupancy) is 0.0758.
Next, AATGTCCC: 0.0778.
On to GAGTGCGC, for which the binding signal (normalized occupancy) amounted to 0.0765.
Turning to CGGCTATC, the binding signal (normalized occupancy) stood at 0.0691.
The figure for ATCTCTCA is 0.0769.
The figure for GACATACA is 0.082; for AGCAAAAC it is 0.0703; for CTATCAAA it is 0.0785.
On to ATAATATG, for which the binding signal (normalized occupancy) stood at 0.089.
On to GGCGTCGA, for which the binding signal (normalized occupancy) came out at 0.0725.
For ATTATTGA, the binding signal (normalized occupancy) was 0.0802.
The figure for CTGGCTCA is 0.074; for GCTCTCTA it is 0.0715.
For the sequence AAATCTCT, the binding signal (normalized occupancy) came to 0.0749.
Regarding CTGTAGAA, the binding signal (normalized occupancy) was found to be 0.0797.
With ATACGGCC, the binding signal (normalized occupancy) came out at 0.0692.
With ACGCAACA, the binding signal (normalized occupancy) worked out at 0.08.
Consider GTGACGAA, for which the binding signal (normalized occupancy) was 0.0743.
As for ACCTAAAT, the binding signal (normalized occupancy) came to 0.073.
In the case of AAAACCAG, the binding signal (normalized occupancy) turned out to be 0.0703.
As for AGCCTCTC, the binding signal (normalized occupancy) came to 0.0729.
On to AAATGGAA, for which the binding signal (normalized occupancy) was determined as 0.0718.
Turning to GAAAAGTA, the binding signal (normalized occupancy) came out at 0.076.
Take CCCCGGAC: the binding signal (normalized occupancy) is 0.0737.
The figure for AGTTGACG is 0.078; for GCCGAAGC it is 0.069; for AAGATATG it is 0.0777.
For the sequence ATCACGGG, the binding signal (normalized occupancy) was 0.0845.
On to AAGGACCT, for which the binding signal (normalized occupancy) stood at 0.0648.
Turning to CCAGCGAC, the binding signal (normalized occupancy) is 0.0726.
With GCGCGGCA, the binding signal (normalized occupancy) came out at 0.0732.
Next, ACTCTGCT: 0.0695; CTCCATAA: 0.0817.
For the sequence ATCGCTGG, the binding signal (normalized occupancy) came out at 0.0739.
For TGTTTGAA, the binding signal (normalized occupancy) came to 0.0748.
On to CATACCCG, for which the binding signal (normalized occupancy) came to 0.0786.
Regarding TAGATCTA, the binding signal (normalized occupancy) was 0.0802.
The figure for CAAGCCAG is 0.0729; for AGGGCAGA it is 0.0748.
Turning to CCTTGCAG, the binding signal (normalized occupancy) came out at 0.0639.
With GTATTGAC, the binding signal (normalized occupancy) turned out to be 0.0759.
The figure for CAAGTGAC is 0.0756.
Next, CCGTACAC: 0.0886; GGCACGCA: 0.0741.
Next, ACGTCAAA: 0.0795; AGCGGTAA: 0.0718; ATGTTAGG: 0.0824.
AGCACCTC: the binding signal (normalized occupancy) was determined as 0.0722.
As to ACATAAGA, the binding signal (normalized occupancy) was 0.0789.
In the case of GAGGGAGA, the binding signal (normalized occupancy) was 0.0736.
Next, AATCTCCT: 0.0712; AACACAAG: 0.082.
As for GACCAAAA, the binding signal (normalized occupancy) was 0.0669.
Regarding CATCTCAC, the binding signal (normalized occupancy) was found to be 0.0826.
Take ATCGTGTA: the binding signal (normalized occupancy) was found to be 0.0829.
For the sequence AGTCATAG, the binding signal (normalized occupancy) amounted to 0.0807.
Next, GGGACTAC: 0.0801.
With AGTTTCTA, the binding signal (normalized occupancy) was 0.0752.
For the sequence CTTAGTAC, the binding signal (normalized occupancy) came to 0.0739.
For the sequence AATAACTA, the binding signal (normalized occupancy) is 0.0804.
Turning to GAGCTTGC, the binding signal (normalized occupancy) stood at 0.0649.
Take ATCCGTGC: the binding signal (normalized occupancy) was found to be 0.078.
On to GAGTACAA, for which the binding signal (normalized occupancy) came out at 0.0725.
Next, CACTAAAG: 0.0674.
On to TATGAAGA, for which the binding signal (normalized occupancy) turned out to be 0.0736.
Next, TACCAGCA: 0.0786; CCTTCCAC: 0.0773; CAACGGGG: 0.0726.
With AGGAGTAC, the binding signal (normalized occupancy) was determined as 0.0739.
CGTAATAG: the binding signal (normalized occupancy) was 0.0793.

Source of the values: PMC4242493.
